Results taken from PubChem BioAssay AID504333 (National Center for Advancing Translational Sciences (NCATS), 2011).
The whole screen tested about 360,000 compounds, of which about 16,000 (4.4%) were called active. Inconclusive means that the source gave no clear call. Such entries were picked first, then a sample of the others. Calls follow the shape of the dose curve; as a rule, active = well fitted inhibition curve with a large enough effect; inconclusive = small, poorly fitted or top-dose-only effect; inactive = no such curve, though single readings can be large or run the other way. A potency beside an inconclusive call is a rough fit, not a confirmed value.
Also: nearly all actives have a fitted effect of over 60% in size.
Potency is read from the fitted curve at half-maximal effect; tags tell the direction and shape of the fitted curve.

What follows are compounds tested against Bromodomain adjacent to zinc finger domain protein 2B (Homo sapiens) (UniProt Q9UIF8) (assay: qHTS Assay for Inhibitors of BAZ2B). Conditions: AlphaScreen BAZ2B-H3K14Ac peptide displacement; series mostly up to 114 µM.
UniProt Q9UIF8, sequence (Q9UIF8 whole entry, looked up, the tested form may be a part): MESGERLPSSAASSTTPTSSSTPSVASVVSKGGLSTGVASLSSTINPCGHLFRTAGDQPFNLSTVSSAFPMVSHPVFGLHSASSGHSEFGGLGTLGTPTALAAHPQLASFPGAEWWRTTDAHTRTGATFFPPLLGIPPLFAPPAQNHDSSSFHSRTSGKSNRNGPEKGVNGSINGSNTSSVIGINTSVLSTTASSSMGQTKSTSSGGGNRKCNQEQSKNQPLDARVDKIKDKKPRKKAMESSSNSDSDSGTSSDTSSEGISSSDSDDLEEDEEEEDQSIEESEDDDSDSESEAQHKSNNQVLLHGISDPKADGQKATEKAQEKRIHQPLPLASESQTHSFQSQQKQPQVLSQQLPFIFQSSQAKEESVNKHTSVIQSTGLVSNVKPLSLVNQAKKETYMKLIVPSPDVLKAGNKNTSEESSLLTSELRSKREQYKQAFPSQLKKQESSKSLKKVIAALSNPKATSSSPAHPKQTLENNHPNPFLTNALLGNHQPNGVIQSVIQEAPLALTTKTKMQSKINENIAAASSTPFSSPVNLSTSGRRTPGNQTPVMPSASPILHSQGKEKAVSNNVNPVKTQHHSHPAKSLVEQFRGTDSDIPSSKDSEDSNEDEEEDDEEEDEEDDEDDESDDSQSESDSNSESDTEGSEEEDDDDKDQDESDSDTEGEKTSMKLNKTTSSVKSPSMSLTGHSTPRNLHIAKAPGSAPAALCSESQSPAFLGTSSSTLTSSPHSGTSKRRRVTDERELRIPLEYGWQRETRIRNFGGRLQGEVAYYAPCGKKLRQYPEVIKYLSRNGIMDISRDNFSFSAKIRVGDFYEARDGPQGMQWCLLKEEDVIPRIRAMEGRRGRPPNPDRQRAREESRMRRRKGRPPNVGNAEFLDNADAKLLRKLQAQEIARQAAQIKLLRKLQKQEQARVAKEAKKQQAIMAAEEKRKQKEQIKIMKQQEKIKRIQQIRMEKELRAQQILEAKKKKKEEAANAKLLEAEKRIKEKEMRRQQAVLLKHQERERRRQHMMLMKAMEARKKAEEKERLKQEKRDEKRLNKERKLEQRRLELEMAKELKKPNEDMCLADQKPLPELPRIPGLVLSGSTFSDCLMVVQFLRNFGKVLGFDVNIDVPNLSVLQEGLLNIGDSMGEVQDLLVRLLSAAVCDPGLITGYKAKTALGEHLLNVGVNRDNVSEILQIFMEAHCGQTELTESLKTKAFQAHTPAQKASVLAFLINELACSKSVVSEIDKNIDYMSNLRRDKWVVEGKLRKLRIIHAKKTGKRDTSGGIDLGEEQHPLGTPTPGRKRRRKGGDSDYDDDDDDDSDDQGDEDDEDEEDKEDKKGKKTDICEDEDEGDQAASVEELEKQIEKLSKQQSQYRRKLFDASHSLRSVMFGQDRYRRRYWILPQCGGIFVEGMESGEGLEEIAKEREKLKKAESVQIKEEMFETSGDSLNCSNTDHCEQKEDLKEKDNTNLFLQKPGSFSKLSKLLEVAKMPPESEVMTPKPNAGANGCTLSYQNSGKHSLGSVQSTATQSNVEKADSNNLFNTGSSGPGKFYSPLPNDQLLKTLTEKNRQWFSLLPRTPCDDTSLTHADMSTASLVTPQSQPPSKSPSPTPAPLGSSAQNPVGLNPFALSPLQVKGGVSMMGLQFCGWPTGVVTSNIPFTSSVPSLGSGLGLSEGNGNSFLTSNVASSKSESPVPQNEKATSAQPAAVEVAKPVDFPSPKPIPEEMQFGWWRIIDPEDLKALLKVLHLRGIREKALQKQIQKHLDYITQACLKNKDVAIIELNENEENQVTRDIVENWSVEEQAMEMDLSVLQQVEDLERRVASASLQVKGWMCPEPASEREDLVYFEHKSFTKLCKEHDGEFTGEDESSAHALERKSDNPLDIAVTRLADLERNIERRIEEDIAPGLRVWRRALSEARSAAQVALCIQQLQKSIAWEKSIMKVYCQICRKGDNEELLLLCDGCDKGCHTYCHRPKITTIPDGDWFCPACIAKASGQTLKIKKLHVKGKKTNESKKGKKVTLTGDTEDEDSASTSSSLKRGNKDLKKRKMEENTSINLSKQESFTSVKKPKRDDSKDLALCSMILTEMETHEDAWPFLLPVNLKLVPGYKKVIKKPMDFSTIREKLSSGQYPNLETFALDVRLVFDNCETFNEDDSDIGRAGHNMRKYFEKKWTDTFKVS
How it was run: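 BAZ2B (50 nM) with biotin-H3(5-23)K14Ac peptide (50 nM) in PBS pH 7.4, 0.01% Tween-20, preformed 30 min, then compound 30 min at room temperature; top concentration 110uM. AlphaScreen streptavidin donor/nickel chelate acceptor beads (10 ug/mL final), 20 min dark, signal read.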
With `Oc1ccccc1CN1CCN(C(c2ccccc2)c2ccccc2)CC1` the Potency was active: 50.1 µM.
In the case of `O=C(CSc1ccnc(=O)[nH]1)NCc1ccc(F)cc1`, the Potency is reported as “inactive”.
`Cc1ccc(C)c(N2CCN(C(c3ccncc3)c3nnnn3Cc3ccccc3)CC2)c1` (stereo not given) was tested, and the Potency was inconclusive: 89.1 µM [inhibitor, single point].
With `COc1cccc(C(c2sc3nc(-c4ccco4)nn3c2O)N2CCC(C)CC2)c1` (stereo not given) the Potency was inconclusive: 89.1 µM [inhibitor, single point].
For `O=C(O)c1ccccc1NS(=O)(=O)c1cccc(C(F)(F)F)c1`, the Potency was “inactive”.
`Cc1ccc(S(=O)(=O)NCCCC(=O)N2CCC(C)CC2)cc1` was tested, and the Potency was “inactive”.
`N#CC1=C(N)Oc2c(ccc3cccnc23)C1c1ccccc1` (stereo not given) was tested, and the Potency was “inactive”.
With `CN1CCN(C2=CC3=CC(=C(C#N)C#N)CCC3CC2)CC1` (stereo not given) the Potency was inconclusive: 79.4 µM [inhibitor, single point].
`Cc1ccc(C)n1NC(=O)c1ccc(O)cc1` was tested, and the Potency was inconclusive: 100 µM [inhibitor, single point].
With `CC(C)NC(=O)COC(=O)/C=C/c1ccco1` the Potency was inconclusive: 100 µM [inhibitor, single point].
In the case of `COc1cccc(NC(=O)C(NCC2CCCCC2)c2ccccc2)c1` (stereo not given), the Potency is reported as inconclusive: 70.8 µM [inhibitor, single point].
`O=C(COc1ccccc1[N+](=O)[O-])Nc1ccc(NC(=O)c2cc3ccccc3o2)cc1` was tested, and the Potency was inconclusive: 89.1 µM [inhibitor, single point].
`COC(=O)c1c(NC(=O)CCl)sc(C(=O)N2CCOCC2)c1C` was tested, and the Potency was “inactive”.
In the case of `Cc1ccc(NC2CCCN(C(=O)c3ccnc(Cl)c3)C2)cc1C` (stereo not given), the Potency is reported as inconclusive: 89.1 µM [inhibitor, single point].
`C/C(=N\NC(=O)c1nnn(-c2nonc2N)c1CSc1ccccc1)c1ccco1` was tested, and the Potency was inconclusive: 100 µM [inhibitor, single point].
With `Cc1ccc(CN2CCC(n3nccc3NC(=O)CCCc3ccccc3)CC2)o1` the Potency was inconclusive: 79.4 µM [inhibitor, single point].
`CC1=NN(Cc2ccccc2)C(=O)C1C(c1ccc(Cl)cc1)C(C#N)C#N` (stereo not given) was tested, and the Potency was inconclusive: 79.4 µM [inhibitor, single point].
`O=C1ON=C(c2ccc(Cl)cc2)/C1=C/c1ccc(O)cc1` was tested, and the Potency was inconclusive: 70.8 µM [inhibitor, partial curve, poor fit].
With `COc1cc(C2c3[nH]c4ccccc4c3C[C@H]3C(=O)N(C4CC4)CC(=O)N23)ccc1OC(C)C` (stereo not given in full) the Potency was inconclusive: 79.4 µM [inhibitor, single point].
With `C/C=N/NC(=O)CCCC(=O)N/N=C/C` the Potency was inconclusive: 89.1 µM [inhibitor, partial curve].
For `O=C1Nc2ccc(Br)cc2/C1=N/N=C/C1=C(N2CCOCC2)C(=C\c2ccccc2)/CC1`, the Potency was inconclusive: 56.2 µM [inhibitor, partial curve, poor fit].
For `Oc1c(Br)cc(Br)cc1C=NCc1ccc(F)cc1`, the Potency was inconclusive: 39.8 µM [inhibitor, partial curve].
With `O=C(N1CCOCC1)n1nnc2ccccc21` the Potency was inconclusive: 89.1 µM [inhibitor, single point].
`CSc1ccc(C2c3c(-c4ccccc4O)n[nH]c3C(=O)N2Cc2ccncc2)cc1` (stereo not given) was tested, and the Potency was inconclusive: 17.8 µM [inhibitor, full curve].
With `CC(Sc1ncn[nH]1)C(=O)NCc1ccccc1` (stereo not given) the Potency was “inactive”.
`CC(=O)Nc1nc(C)c(Oc2ccc(C)cc2)c(=O)[nH]1` was tested, and the Potency was “inactive”.
In the case of `CC(=O)N1Cc2[nH]c3ccccc3c2CC1C(=O)O` (stereo not given), the Potency is reported as inconclusive: 100 µM [inhibitor, single point].
For `CC1(C)C2([N+](=O)[O-])CN3CC1([N+](=O)[O-])CN(C2)C3c1ccc(O)c(O)c1` (stereo not given), the Potency was “inactive”.
For `Clc1ccc(C2Nc3cccc4cccc(c34)N2)cc1Cl`, the Potency was inconclusive: 89.1 µM [inhibitor, single point].
For `Cc1cccc2c(=O)cc(CSc3ccccc3NC(=O)c3cccc(Cl)c3)[nH]c12`, the Potency was “inactive”.
In the case of `CC(=O)Nc1ccc(-c2csc(Nc3cc(C)ccn3)n2)cc1`, the Potency is reported as inconclusive: 56.2 µM [inhibitor, partial curve].
For `CCc1cccc(NC(=O)C2CCCN(c3ncnc4c3nc3n4CCCCC3)C2)c1` (stereo not given), the Potency was inconclusive: 22.4 µM [inhibitor, single point].
`O=C(Oc1ccc(F)cc1C(=O)/C=C/c1cccs1)c1cccc([N+](=O)[O-])c1` was tested, and the Potency was inconclusive: 10 µM [inhibitor, full curve].
For `Cc1ccccc1C1c2[nH]c3ccccc3c2C[C@H]2C(=O)N(c3ccccc3C(=O)NCCN3CCOCC3)C(=O)N12` (stereo not given in full), the Potency was inconclusive: 39.8 µM [inhibitor, partial curve].
`C=CCNC1=C(Cl)C(=O)c2ccccc2C1=O` was tested, and the Potency was active: 31.6 µM.
For `CSc1nc(-c2ccco2)nn1C(=O)c1ccccc1`, the Potency was inconclusive: 89.1 µM [inhibitor, single point].
For `Cc1ccc(C23CC4CC(CC(C(=O)NC(C(=O)O)C(C)C)(C4)C2)C3)cc1` (stereo not given), the Potency was “inactive”.
For `Cc1cc(SCc2ccccc2F)nc(=O)[nH]1`, the Potency was inconclusive: 28.2 µM [inhibitor, single point].
`CC1(C)C(C=C(Cl)Cl)C1C(=O)Nc1ccc([N+](=O)[O-])cc1` (stereo not given) was tested, and the Potency was inconclusive: 89.1 µM [inhibitor, single point].
In the case of `Cc1ccccc1NC(=O)CSc1nc2c(oc3ccccc32)c(=O)n1Cc1ccco1`, the Potency is reported as “inactive”.
With `O=C(O)c1ccc2c3c(cccc13)C(=O)N(c1ccccc1)C2=O` the Potency was active: 56.2 µM.
`C=CCOc1ccc(CNc2ccc(NC(=O)CCC)cc2)cc1OCC` was tested, and the Potency was inconclusive: 79.4 µM [inhibitor, single point].
`O=S(=O)(O)c1nc2ccccc2n1Cc1ccc(Cl)cc1` was tested, and the Potency was inconclusive: 89.1 µM [inhibitor, single point].
`COc1ccc([N+](=O)[O-])cc1NC(=O)C(C)OC(=O)CSC(C)C(=O)Nc1cc(C)on1` (stereo not given) was tested, and the Potency was “inactive”.
`Cc1cc(/C=c2\sc3nc4ccccc4n3c2=O)c(C)n1-c1ccc(C(=O)O)cc1` was tested, and the Potency was inconclusive: 31.6 µM [inhibitor, full curve].
In the case of `CCCCc1ccc(NC(=O)Cn2cnc3c(oc4ccccc43)c2=O)cc1`, the Potency is reported as inconclusive: 56.2 µM [inhibitor, partial curve].
`Cn1c2ccccc2c(=O)c2cc(C#Cc3ccccn3)ccc21` was tested, and the Potency was inconclusive: 89.1 µM [inhibitor, single point].
`CCOc1ccc(NC(=S)NN(C)C(=S)Nc2ccc(OCC)cc2)cc1` was tested, and the Potency was inconclusive: 39.8 µM [inhibitor, partial curve].
For `COc1ccc(N2CCC(CNC(=O)Nc3ccccc3)C2)cc1` (stereo not given), the Potency was active: 50.1 µM.
For `CC1=CC(C)(C)Nc2ccc(OC(=O)C(C)N3C(=O)c4ccccc4C3=O)cc21` (stereo not given), the Potency was active: 22.4 µM.
For `CCOC(=O)c1cccc(NC(=O)C2COc3ccc(OC)cc3C2)c1` (stereo not given), the Potency was inconclusive: 89.1 µM [inhibitor, single point].
`COc1ccc(C(CNC(=O)c2oc3ccc(F)cc3c2C)N2CCCCC2)cc1` (stereo not given) was tested, and the Potency was inconclusive: 70.8 µM [inhibitor, single point].
For `O=C1C2C3C=CC(C3)C2C(=O)N1c1ccc2c(c1)OCO2` (stereo not given), the Potency was “inactive”.
In the case of `O=C(CSC(=S)N1CCOCC1)Nc1ncc2c(n1)CC(c1ccco1)CC2=O` (stereo not given), the Potency is reported as “inactive”.
For `COc1ccccc1C1=Nn2c(COc3ccccc3)nnc2SC1`, the Potency was inconclusive: 50.1 µM [inhibitor, partial curve].
With `O=C(CNCC1CCCCC1)Nc1ccc(N2CCCCC2)cc1` the Potency was active: 28.2 µM.
For `O=C(COc1cc(Cl)c(Cl)cc1Cl)NC(=O)NC1CCCC1`, the Potency was inconclusive: 14.1 µM [inhibitor, single point].
`Cc1c(C(=O)OCc2ccccc2)[nH]c2c1C(=O)CC(c1ccco1)C2` (stereo not given) was tested, and the Potency was active: 50.1 µM.
In the case of `COc1ccc([C@]23Cc4ccccc4C(O2)C2=C(CC(C)(C)CC2=O)O3)cc1`, the Potency is reported as inconclusive: 14.1 µM [inhibitor, single point].
In the case of `COc1ccc(OC)c(C2CC(=O)C3=C(C2)NC(=O)CC3c2ccc(O)c(OC)c2)c1` (stereo not given), the Potency is reported as inconclusive: 89.1 µM [inhibitor, single point].
For `CN1C(=O)C2(SCC(=O)N2c2ccc(F)cc2)c2ccccc21` (stereo not given), the Potency was inconclusive: 89.1 µM [inhibitor, single point].
For `COc1cc(OC)cc(C(=O)Nc2ccc3oc(-c4cccc5c(Br)cccc45)nc3c2)c1`, the Potency was inconclusive: 89.1 µM [inhibitor, single point].
For `COc1ccc(CN2C(=O)C(Cc3ccccc3)Nc3ncnc(N4CCN(c5ccccc5)CC4)c32)cc1` (stereo not given), the Potency was “inactive”.
In the case of `COc1ccc(C(=O)OCC(=O)N(C)C2CCS(=O)(=O)C2)cc1Br` (stereo not given), the Potency is reported as “inactive”.
In the case of `COc1ccc(CC(=O)Nc2ccc(-c3cn4ccc(C)cc4n3)cc2)cc1`, the Potency is reported as “inactive”.
`CCCCOc1ccc(-c2c(C(=O)Nc3ccccc3)c(C)[nH]c(=S)c2C#N)cc1` was tested, and the Potency was inconclusive: 44.7 µM [inhibitor, partial curve].
With `COc1ccc(-n2c(=O)c3c4c(sc3n3c(SCCC(C)C)nnc23)COC(C(C)C)C4)cc1` (stereo not given) the Potency was “inactive”.
In the case of `COc1cc(OC)c(NC(=S)Nc2cccc(C(C)=O)c2)cc1Cl`, the Potency is reported as inconclusive: 70.8 µM [inhibitor, single point].
With `CN1CCC(=NNC(=O)C(=O)NC2CCCC2)CC1` the Potency was inconclusive: 89.1 µM [inhibitor, single point].
With `O=C(Nc1cccnc1)C1(c2ccc(Cl)cc2)CCCC1` the Potency was inconclusive: 89.1 µM [inhibitor, single point].
